Consider 13 molecules from the supplement of paper PMC6828730.

The other results are listed elsewhere or left out. Repeats are few or missing, and single values can be far off.

The assay concerns hiPSC-derived cardiomyocytes. Put plainly: time to death of most cells in well after compound addition (days); higher = less cardiotoxic; extreme values may be limits of the assay. The note with it: screen: 4; 10 µM.
With `O=C(NC1CCNCC1)c1n[nH]cc1NC(=O)c1c(Cl)cccc1Cl`, the “time to death of most cells in well” value was over 7.

For the molecule `CS(=O)(=O)CCNCc1ccc(-c2ccc3ncnc(Nc4ccc(OCc5cccc(F)c5)c(Cl)c4)c3c2)o1`, the “time to death of most cells in well” value was over 7.

Consider `C=CC(=O)Nc1cccc(Sc2nc(Nc3ccc(N4CCN(C)CC4)cc3)ncc2Cl)c1`, for which the “time to death of most cells in well” value came to 6.5.

For the molecule `CNc1nc(Nc2cnn(C3CCN(C4COC4)CC3F)c2Cl)ncc1C(F)(F)F` (stereo not drawn), the “time to death of most cells in well” value was over 7.

For the molecule `Cc1cc(Nc2cc(N3CCN(C)CC3)nc(Sc3ccc(NC(=O)C4CC4)cc3)n2)n[nH]1` [Tozasertib (VX-680, MK-0457)], the “time to death of most cells in well” value is over 7.

Turning to `Cc1nc(Nc2cnn(C3CCNCC3)c2)nc2c1N(C)C(=O)c1cc3ccccc3cc1N2C`, the “time to death of most cells in well” value was found to be 5.5.

`CNc1nc(-c2ccc3c(N)n[nH]c3c2)cc(N2C[C@@H](C(=O)NC3CCCCC3)CC[C@H]2C)n1`: the “time to death of most cells in well” value was over 7.

On to `C=CCc1ccc(O)c(-c2ccc(O)c(CC=C)c2)c1` [Honokiol], for which the “time to death of most cells in well” value was over 7.

As for `CCN1CCN(Cc2ccc(C(=O)Nc3ccc(C)c(Oc4ccc5c(c4)CC(=O)N5)c3)cc2C(F)(F)F)CC1`, the “time to death of most cells in well” value is over 7.

As for `O=C1NC(=O)/C(=C/c2cccc(C(F)(F)F)c2)S1`, the “time to death of most cells in well” value was over 7.

On to `CN(c1ncccc1CNc1nc(Nc2ccc3c(c2)CC(=O)N3)ncc1C(F)(F)F)S(C)(=O)=O`, for which the “time to death of most cells in well” value was over 7.

`CC(C)[C@H](CO)Nc1nc(Nc2cccc(Cl)c2)c2ncn(C(C)C)c2n1` [Purvalanol A]: the “time to death of most cells in well” value is over 7.

With `CCN1CCN(C(=O)Cc2ccc(Nc3ncc(F)c(Nc4ccc(C(=O)Nc5ccccc5Cl)cc4)n3)cc2)CC1` [Aurora A Inhibitor I], the “time to death of most cells in well” value is over 7.
